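Test compounds were applied to cells in 96-well plates for 48 hours at 5 doses. GI50 marks 50% less growth. Definition used: TGI = concentration required for complete inhibition of growth.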 Square brackets hold non-standard residues; d marks the D form. Peptide text beside a SMILES is read from it. * marks the point of attachment. Decanoyl = CCCCCCCCCC(=O)*; Leu(ol) = CC(C)C[C@H](N)CO; Iva = CC[C@](C)(N)C(=O)O; Aib = CC(C)(N)C(=O)O

In the assay the test system is NCI-H322M lung. The assay is described as follows: NCI tumour cell line growth inhibition, 48 h.
As for `C#Cc1ccc(NC(=O)c2ccc(/C=C/C(=O)c3nccn3C)cc2)c(F)c1`, the GI50 was 1.41 µM and the TGI is greater than 50 µM.
Turning to `CCCCCCCCCC(=O)NC(C)(C)C(=O)N1CCC[C@H]1C(=O)N[C@@H](CC(C)C)C(=O)N[C@@](C)(CC)C(=O)N[C@@H](CCC(N)=O)C(=O)N[C@H](CCC(N)=O)C(=O)NC(C)(C)C(=O)NC(C)(C)C(=O)N[C@@H](CCC(N)=O)C(=O)N[C@H](CC(C)C)C(=O)N[C@H](CO)CC(C)C` (Decanoyl-[Aib]PL[Iva]Q[dQ][Aib][Aib]Q[dL][Leu(ol)]), the GI50 was 1.74 µM and the TGI is 3.31 µM.
Consider `CCOc1ccc(C(=O)Nc2ncc(Cc3ccc(F)cc3)s2)cc1`, for which the GI50 is 0.575 µM and the TGI is greater than 100 µM.
The corresponding values for `Oc1ccc(CSc2nnc(-c3ccc(Cl)cc3)n2-c2ccccc2)c2cccnc12` are 1.06 µM and greater than 100 µM.

Values taken from PubChem BioAssay (NCI).
